The values that follow come from patent publication US10669242B2 (priority 2016, dated 2020).

For the test, the system named is C. difficile strain 630. Also on record: species or system Golden Syrian hamsters. The conditions noted are these: hamster, in vivo, po.

Like-named read-outs stand apart in the source and are kept apart here.

On to `CN[C@H](CC(C)C)C(=O)N[C@H]1C(=O)N[C@@H](CC(N)=O)C(=O)N[C@H]2C(=O)N[C@H]3C(=O)N[C@H](C(=O)N[C@H](C(=O)O)c4cc(O)cc(O)c4-c4cc3ccc4O)[C@H](O)c3ccc(c(Cl)c3)Oc3cc2cc(c3O[C@@H]2O[C@H](CO)[C@@H](O)[C@H](O)[C@H]2O[C@H]2C[C@](C)(N)[C@H](O)[C@H](C)O2)Oc2ccc(cc2Cl)[C@H]1O` [vancomycin, reference compound], for which the “Median Survival” value (5 mg/kg) worked out at 12.0 days. For the molecule `O=C(Nc1ccc(C(F)(F)F)cn1)c1ccc(CN2C(=O)c3ccc(Cl)cc3NC(=O)[C@H]2Cc2ccccn2)cc1Cl` [Example 5ae, (R)-2-Chloro-4-((8-chloro-2,5-dioxo-3-(pyridin-2-ylmethyl)-2,3-dihydro-1H-benzo[e][1,4]diazepin-4(5H)-yl)methyl)-N-(5-(trifluoromethyl)pyridin-2-yl)benzamide], for the setting “50 mg/kg”, the “Median Survival” value worked out at 12.3 days.
